Screen size: about 48,000 compounds; about 120 (0.25%) were called active. The inconclusive results got no clear call from the source; some entries with a clear call stand among them for comparison. The call rests on the fitted dose curve; in most records, active means well fitted activation curve with a large enough effect; inconclusive means small, poorly fitted or top-dose-only effect, or another doubt; inactive means no such curve, though single readings can be large or run the other way. A potency beside an inconclusive call is a rough fit, not a confirmed value.
Experiment: Primary qHTS for Identification of Small Molecule Activators of Huntingtin-Antisense Promoter Activity; further: nearly all actives have a fitted effect of over 55% in size
Conditions: HEK293 HTT-AS promoter firefly luciferase reporter, 24 h; activity change, positive = activation: at 57.5 µM (top of the series), percent change from vehicle, -100% = no light unless noted
How it was run: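 Firefly luciferase readout (Dual-Glo, 10 min RT) after 24 h, 37 °C compound exposure (final up to 57.5 uM) of HEK293 reporter cells cultured 24 h beforehand; PTC124 at 50 uM final as control inhibitor; activity scaled vehicle 0%, zero RLU -100%.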
With `Nc1c(C(=O)Nc2ccc(Br)cc2)sc2nc(-c3ccncc3)ccc12` the Potency was “inactive”.
In the case of `Cc1ccc(NC(=O)Cn2nnc(C(=O)NCCc3ccccc3)c2N)cc1C`, the Potency is reported as “inactive”.
In the case of `Cc1ccc(C(=O)Nc2nc(-c3ccccc3)ns2)cc1`, the Potency is reported as inconclusive: 14.1 µM [activator, partial curve, poor fit].
With `CS(=O)(=O)N1CCc2cc(C(=O)Nc3cccc(F)c3)ccc21` the Potency was inconclusive: 5.62 µM [activator, partial curve].
For `Cc1ccc(Cc2nc3ccccc3nc2SCC(=O)N2CCCCC2C)cc1` (configuration not stated), the Potency was “inactive”.
With `COc1ccccc1OCC(=O)NCC1(N(C)C)CCCCC1` the Potency was inconclusive: 39.8 µM [activator, single point].
With `Cc1ccc2ccc3cc(C(=O)N4CCN(c5ccccc5)CC4)nc3c2[nH]1` the Potency was “inactive”.
With `CC(=O)Nc1ccc(-c2nnc(SCC(=O)c3ccc([N+](=O)[O-])cc3)o2)cc1` the Potency was “inactive”.
With `Fc1ccccc1-n1ncc2c1ncn1nc(Cc3ccccc3)nc21` the Potency was inconclusive: 1.58 µM [activator, full curve, poor fit].
With `O=C(NCCC1=CCCCC1)c1ccc2c(c1)N(Cc1cccc(Cl)c1)C(=O)c1ccccc1S2(=O)=O` the activity change, positive = activation was inconclusive: -13.7% [activator].
For `Cc1cc2nc(-c3cccc(NC(=O)COc4ccc(Cl)c(C)c4)c3)oc2cc1C`, the Potency was inconclusive: 1 µM [activator, full curve, poor fit].
In the case of `Cc1ccc(Cl)cc1-n1ncc2c(N3CCC(C)CC3)ncnc21`, the Potency is reported as “inactive”.
In the case of `Brc1ccc(-c2ccc(CNCCSc3nnnn3-c3ccccc3)o2)cc1`, the Potency is reported as inconclusive: 6.31 µM [activator, partial curve].
With `Cc1cccc(C)c1OCC(=O)Nc1nonc1-c1ccc(Br)cc1` the Potency was “inactive”.
For `Cc1ccc(-n2ncc3c(NCCc4ccccc4)ncnc32)cc1`, the Potency was inconclusive: 2.51 µM [activator, full curve].
In the case of `COc1ccc2c(C)cc(SCC(=O)Nc3nsc(-c4ccc(C(C)(C)C)cc4)n3)nc2c1`, the Potency is reported as inconclusive: 4.47 µM [activator, full curve].
For `COC(=O)CNC(c1ccccc1)c1cc(Br)ccc1NC(=O)c1cc(OC)c(OC)c(OC)c1` (configuration not stated), the Potency was “inactive”.
For `Cc1ccc(-c2csc(=Nc3ccccc3)n2CCCO)cc1`, the Potency was “inactive”.
In the case of `CC(=O)N(C)C1(c2ccccc2)CCN(CCC[C@]2(c3ccc(Cl)c(Cl)c3)CCCN(C(=O)c3ccccc3)C2)CC1`, the Potency is reported as “inactive”.
With `CC(C)(C)C(=O)OCc1cc(=O)n2nc(C3CCCCC3)sc2n1` the Potency was inconclusive: 14.1 µM [activator, partial curve, poor fit].
With `N#Cc1ccccc1CSc1nnc(-c2ccccc2)o1` the Potency was inconclusive: 1 µM [activator, partial curve, poor fit].
In the case of `Cc1ccn2c(Nc3ccc4c(c3)OCO4)c(-c3ccco3)nc2c1`, the Potency is reported as inconclusive: 5.62 µM [activator, partial curve].
With `COCCc1nn2c(=O)cc(COC(=O)c3cccs3)nc2s1` the Potency was inconclusive: 14.1 µM [activator, partial curve].
For `COCCCNC(=O)Nc1cc(C(=O)NCc2ccc(OC)cc2)ccc1N1CCCC1`, the Potency was inconclusive: 14.1 µM [activator, partial curve].
For `Fc1cccc(NCc2cccn2-c2nnc(N3CCOCC3)s2)c1`, the Potency was “inactive”.
In the case of `O=C(c1ccco1)N1CCN(c2nc3ccc(Cl)cc3s2)CC1`, the Potency is reported as inconclusive: 3.98 µM [activator, partial curve, poor fit].
For `COc1ccc2cc(CNc3ccccc3)c(=O)n(CC(=O)Nc3ccc(C)cc3C)c2c1`, the Potency was “inactive”.
For `O=C(Nc1noc2ccccc12)c1ccc(F)cc1`, the Potency was inconclusive: 0.501 µM [activator, full curve, poor fit].
With `CCCCCC(=O)Nc1ccc(NC(=O)c2cc3ccccc3o2)c(OC)c1` the Potency was “inactive”.
In the case of `O=C(c1cc(-c2ccc(Cl)cc2)on1)N(Cc1cccc(F)c1)Cc1ccco1`, the activity change, positive = activation is reported as inconclusive: -57.1% [activator].
With `COc1ccc(CNc2nc(-c3ccco3)nn2C(=O)c2ccccc2Cl)cc1` the Potency was inconclusive: 5.01 µM [activator, partial curve].
In the case of `CS(=O)(=O)N1CCc2cc(C(=O)NCCc3ccccc3)ccc21`, the Potency is reported as active: 3.16 µM.
With `COc1cccc(Nc2c3c(nc4nncn24)CCC3)c1` the Potency was “inactive”.
In the case of `CCOc1ccc(NCc2cccn2-c2nnc(N3CCC(C(=O)NCCc4ccc(OC)c(OC)c4)CC3)s2)cc1`, the activity change, positive = activation is reported as inconclusive: -70.4% [activator].
For `Cc1ccc(-c2nc3ccc(Cl)cn3c2Nc2ccccc2C)s1`, the Potency was inconclusive: 12.6 µM [activator, partial curve].
In the case of `CN(Cc1cc(Br)cc(Br)c1N)C1CCCCC1`, the Potency is reported as “inactive”.
With `O=C(CSc1nnc(-c2ccccc2)o1)N1CCCc2ccccc21` the Potency was “inactive”.
In the case of `Cc1nc2c3ccccc3nc(NNC(=O)CCC(=O)N3CCN(c4ccccc4F)CC3)n2n1`, the activity change, positive = activation is reported as inconclusive: -36.8% [activator].
With `NC(=O)c1cc(S(=O)(=O)N2CCN(c3ccc(F)cc3)CC2)cs1` the Potency was “inactive”.
In the case of `CCCS(=O)(=O)Nc1cc(-c2cn3cccc(C)c3n2)ccc1C`, the Potency is reported as inconclusive: 10 µM [activator, partial curve].
For `COc1ccc(-c2cn3nc(N4CCC(C(=O)NCc5ccccc5F)CC4)sc3n2)cc1`, the Potency was inconclusive: 0.562 µM [activator, full curve].
For `COc1ccc(Br)cc1C(=O)Nc1nc2ccc(F)cc2s1`, the Potency was active: 1.78 µM.
In the case of `CCOC(=O)c1ccccc1NC(=O)N(C)CCc1c(C)nn(CC)c1C`, the Potency is reported as inconclusive: 39.8 µM [activator, single point].
With `COc1ccc(-c2nc(CS(=O)CC(=O)NCc3ccccc3OC)c(C)o2)cc1` (configuration not stated) the activity change, positive = activation was inconclusive: 13.5% [activator].
In the case of `Cn1cnc(=N)c2[nH]cnc21`, the Potency is reported as inconclusive: 24.3 µM [activator, single point].
With `Cc1cc(C)cc(OCC(=O)Nc2ccc(-c3nc4ccccc4o3)cc2)c1` the Potency was inconclusive: 2.51 µM [activator, partial curve, poor fit].
For `CCC(=O)N1CCc2cc(S(=O)(=O)NC(C(=O)Nc3ccc(C(C)=O)cc3)C(C)C)ccc21` (configuration not stated), the Potency was inconclusive: 10 µM [activator, partial curve, poor fit].

Reference: PubChem BioAssay AID1508624 (National Center for Advancing Translational Sciences (NCATS), 2021)
Potency means the concentration at half of the fitted maximal effect; tags describe the fitted curve by direction and shape.
